Out of some 150,000 compounds screened, about 540 (0.36%) showed an effect of 50% or more. Some of the results follow.

The assay deals with Plasmodium falciparum. Put plainly: Primary screen in NF54 nanoGlo assay, in single point, at 2uM, 72h; a lower Z score goes with more inhibition. It is filed as functional, Erythrocyte. Particulars: timepoint 72 hour.
As to `CC(C)(C)c1nnc([C@H]2CCN(Cc3ncc[nH]3)C2)o1`, the % Inhibition (in general, the drop in the measured response relative to a control, in per cent) is listed as -9% and the Z score amounted to 1.38.
In the case of `CC1(C)Cc2cccc(OCC(=O)N3CCN(C(=O)c4cnn5ccccc45)CC3)c2O1`, the “% Inhibition” value is -7% and the Z score stood at 1.08.
On to `O=C(Nc1ccc2cncn2c1)[C@@H]1CCCCO1`, for which the “% Inhibition” value is -10% and the Z score was determined as 1.11.
Turning to `CCc1nnc(CN(C)c2ccccc2N(C)C)n1C`, the “% Inhibition” value stood at 1% and the Z score is -0.09.
For `COC(=O)[C@@H]1CN(Cc2ncc(-c3ccccc3C)o2)CCO1`, in that order: -10% and 1.03.
As to `COc1cn(C)nc1[C@H](C)Nc1cnccn1`, the “% Inhibition” value came to 9% and the Z score was -1.09.
As to `CC(C)(C)NC(=O)NC[C@@H]1OCCc2sccc21`, the “% Inhibition” value is on record as -12% and the Z score worked out at 1.21.
For `Cc1cc(-c2cc(S(=O)(=O)N3C[C@@H]4CC[C@H]3CN(C)C4)c(C)s2)[nH]n1`, in that order: -10% and 0.96.
Take `N#Cc1ncn(CC(=O)N(C2CCCC2)C2CC2)n1`: the “% Inhibition” value is -3% and the Z score is 0.6.
Taken in the same sequence, the figures for `CC[C@H]1CN(C(=O)c2cccc(N)n2)CCO1` were -4% and 0.51.
Turning to `CC[C@H]1CCCCN1C(=O)c1cnn(-c2nccc(-c3cccs3)n2)c1COC`, the “% Inhibition” value stood at 11% and the Z score was -1.45.
`CS(=O)(=O)c1cnn(C[C@H](O)c2ccc(F)c(F)c2)c1`: the “% Inhibition” value was -1% and the Z score came out at 0.14.
Taken in the same sequence, the figures for `CC(C)CN(C1CCN(C)CC1)C1CN(C(=O)COCc2ccccc2)C1` were -9% and 1.15.
Taken in the same sequence, the figures for `O=C(N[C@@H]1CN(C(=O)C2CCC2)C[C@H]1CO)c1ccccc1` were -8% and 1.44.
As for `O=C(Nc1ccc2c(c1)OCCO2)N1Cc2ccccc2Oc2ncccc21`, the “% Inhibition” value is -13% and the Z score came out at 1.7.
For `CN(CCO)Cc1nnc(C2CCN(C(=O)c3cc(C4CC4)n[nH]3)CC2)n1C`, in that order: -7% and 1.02.
For `Cc1cc(C(=O)Nc2nc(-c3cc(C(N)=O)oc3C)cs2)no1`, in that order: -10% and 1.46.
Regarding `O=C1C[C@@H](c2ccccc2)N(C(=O)Cc2ccc(F)c(F)c2)CCN1`, the “% Inhibition” value is recorded as -12% and the Z score is given as 1.63.
For `N#Cc1ncn(CCC2=CCCCC2)n1`, in that order: -5% and 0.73.
Taken in the same sequence, the figures for `Cc1cc(N(C)C)nc(CNC(=O)c2cccnc2)n1` were 3% and -0.4.
Regarding `Cc1ccc(NC(=O)CCCc2nc3cccnc3n2C2CCCCC2)cc1`, the “% Inhibition” value is given as 1% and the Z score is listed as -0.21.
For `CCN(C(=O)C1=NN(c2ccccc2)[C@H](C(N)=O)C1)c1ccccc1`, in that order: 4% and -0.64.
`Cc1cc(C)c(CNC(=O)c2cncc3ccccc23)c(=O)[nH]1`: the “% Inhibition” value was -11% and the Z score amounted to 1.48.
As to `c1ccc(CNCCN2CCCC3CCCC32)cc1` (configuration not stated), the “% Inhibition” value is on record as -1% and the Z score came to 0.11.
On to `CCN1C(=O)CN(C(=O)c2ccc3ncccc3c2)CC12CCOCC2`, for which the “% Inhibition” value is on record as -9% and the Z score stood at 1.12.
For `O=C(N[C@H]1COCC[C@@H]1Oc1ccccn1)c1cccnc1O`, in that order: -10% and 1.4.
Taken in the same sequence, the figures for `O=C(c1cc(O)c(OCc2ccccc2)cn1)N1CCc2ccccc2C1` were 1% and -0.06.
Regarding `CCOC1(C(=O)N[C@H]2CCn3ccnc32)CCCC1`, the “% Inhibition” value is -3% and the Z score is given as 0.65.
As for `Cc1cc(CN(CCS(C)(=O)=O)C(C)C)no1`, the “% Inhibition” value was -11% and the Z score is 1.14.
`CN(C)Cc1csc(CNC(=O)Nc2cc3n(n2)CCN(C)C3)n1`: the “% Inhibition” value came out at 6% and the Z score is reported as -0.92.
For `COc1nn(C)cc1CNC(=O)[C@@H]1CCc2cccc(O)c21`, in that order: -5% and 0.83.
Taken in the same sequence, the figures for `CC(=O)Nc1ccc(C(=O)N2C3CCC2CC(n2cncn2)C3)cc1` (configuration not stated) were -5% and 0.53.
Consider `COCc1ccc(C(=O)NCc2nccn2C(C)C)s1`, for which the “% Inhibition” value is on record as 5% and the Z score is reported as -0.95.
In the case of `Cc1ccc2nc(NC(=O)CCC(=O)OC3CCC(C)C(C)C3)sc2c1` (configuration not stated), the “% Inhibition” value was -9% and the Z score was 1.29.
For `Cc1ccc(Cc2nc(N3CCN(C(=O)Nc4cccc(Br)c4)CC3)c3c(-c4cccnc4)noc3n2)cc1`, in that order: -10% and 1.99.
For `CC(C)Oc1ccc(-c2noc(-c3nn(-c4ccc(Cl)cc4)ccc3=O)n2)cc1`, in that order: -1% and 0.18.
For `O=c1ccc(-c2ccc3c(c2)OCO3)n[nH]1`, in that order: -7% and 1.17.
On to `Cc1nc2ccc3nc(NC(=O)CN4C(=O)c5ccccc5C4=O)sc3c2s1`, for which the “% Inhibition” value is on record as -8% and the Z score is listed as 1.32.
Taken in the same sequence, the figures for `Cc1cc(C(=O)N(C)Cc2cccnc2)cc(=O)[nH]1` were -5% and 0.92.
Taken in the same sequence, the figures for `CCNC(=NCc1ccc(CC)s1)NCC` were -4% and 0.74.
Taken in the same sequence, the figures for `CCCn1c(C)cnc1CCNC(=O)c1ccoc1` were -7% and 0.73.
`COc1cccc(CN2CC3(CCN(C(=O)c4cncnc4C)CC3)CC2=O)c1`: the “% Inhibition” value is given as -9% and the Z score is 1.8.
Consider `COCCn1c(C)cc(C(=O)N2CCC3(CC2)C[C@@H](CCO)CCO3)c1C`, for which the “% Inhibition” value is -7% and the Z score was determined as 1.41.
For the molecule `Cc1ccc(Cl)cc1-n1ncc2c(NCc3ccc4c(c3)OCO4)ncnc21`, the “% Inhibition” value is on record as 8% and the Z score is -0.91.
As to `Cn1cc(C(=O)N2CC[C@H](Oc3cccc(Cl)c3)C2)ccc1=O`, the “% Inhibition” value is -4% and the Z score came out at 0.47.
As to `CCN1Cc2ccccc2C[C@H]1C(=O)NC1CCN(S(=O)(=O)c2ccccc2)CC1`, the “% Inhibition” value is given as -10% and the Z score worked out at 0.93.
As for `Cc1ccc(C(C)(C)CN(C)S(=O)(=O)N(C)C)cc1`, the “% Inhibition” value is recorded as -9% and the Z score came out at 1.26.
For the molecule `CN(C)c1ccc(CNc2nc[nH]n2)cc1`, the “% Inhibition” value is listed as -7% and the Z score amounted to 0.6.
For `CN(C)CCCC1(O)c2ccccc2C=Cc2ccccc21`, the “% Inhibition” value is given as -32% and the Z score was 3.78.
As to `COC(C(=O)N1CCCCC1C(=O)N1CCOCC1)C1CC1` (configuration not stated), the “% Inhibition” value is on record as -9% and the Z score turned out to be 1.21.
`O=C(NCc1ccco1)c1nnsc1NC(=O)N1CCOCC1`: the “% Inhibition” value is on record as -2% and the Z score stood at 0.32.
Taken in the same sequence, the figures for `Cc1noc(C)c1CCC(=O)N1CC[C@@H](c2cccs2)S(=O)(=O)CC1` were -11% and 1.87.
Regarding `O=C1[C@@H]2C[C@@H](O)CN2C2(CN(Cc3ccccc3)C2)C(=O)N1Cc1cccnc1`, the “% Inhibition” value was -12% and the Z score was found to be 2.14.
In the case of `CC(=O)N1CCC[C@H]1c1nc(-c2cccc(C(F)(F)F)c2)c[nH]1`, the “% Inhibition” value stood at 14% and the Z score is -1.86.
Taken in the same sequence, the figures for `Cn1c(C(=O)Nc2ccc(N3CCCCC3)cc2)cccc1=O` were -14% and 2.68.
For the molecule `CN1CCN(C(=O)c2ccc(NCCc3ccc(Cl)cc3)c(S(=O)(=O)Nc3cccc(C(F)(F)F)c3)c2)CC1`, the “% Inhibition” value came to 23% and the Z score is on record as -2.7.
For `Cc1ccc(NC(=O)c2ccc(C(=O)Nc3ccc(C)c(Cl)c3)s2)cc1Cl`, in that order: -9% and 1.3.
Take `COc1ccc(-c2c3c(cc(C)[n+]2[O-])oc2ccc(OC)cc23)cc1`: the “% Inhibition” value was determined as 5% and the Z score was -0.68.
Take `CC(C)C[C@@H](CO)NC(=O)Nc1cccs1`: the “% Inhibition” value is -13% and the Z score amounted to 2.38.
Taken in the same sequence, the figures for `CCc1noc(C)c1C(=O)N[C@H]1CCN(Cc2cccnc2)C[C@@H]1O` were -8% and 1.02.
Taken in the same sequence, the figures for `Cc1cc(N2CCCC2)nc(N2CCN(C(=O)C3CCCC3)CC2)n1` were -9% and 1.77.
With `O=C(C[C@H]1CC(=O)Oc2ccccc21)NCc1ccncc1`, the “% Inhibition” value is listed as -5% and the Z score is on record as 0.54.
Taken in the same sequence, the figures for `Cn1cc(C(=O)NCC#CCOc2ccccc2C(N)=O)nn1` were -18% and 2.28.
Taken in the same sequence, the figures for `CCN(CCC(=O)NCCN1CCCCC1)C(=O)c1cc2n(n1)CCCN(Cc1ccccc1C)C2=O` were 5% and -0.63.
Taken in the same sequence, the figures for `Cc1n[nH]cc1CNC(=O)N1CCOCC1C1CCCC1O` (configuration not stated) were -7% and 1.35.
Regarding `Cc1cccc2c1CN(C(=O)OC(C)(C)C)CCN2C(=O)c1ccnc(N(C)C)c1`, the “% Inhibition” value is reported as -7% and the Z score worked out at 1.23.
For `Cc1cc(CNC(=O)N[C@@H]2CCc3cc(F)ccc32)on1`, in that order: -7% and 0.96.
Taken in the same sequence, the figures for `Cc1csc2c(NCCN3CCc4ccccc4C3=O)ncnc12` were -8% and 1.47.
Taken in the same sequence, the figures for `O=C(Nc1cc2c(cn1)CCC2)N1CC2(CCCC2)C1` were 8% and -0.89.
Regarding `NC(=O)[C@H](Cc1ccccc1)n1cnc2c(F)cccc2c1=O`, the “% Inhibition” value was -8% and the Z score amounted to 1.52.
As for `COC[C@H](NC(=O)c1cnc(-c2csc(C)n2)nc1O)c1ccnn1C`, the “% Inhibition” value is recorded as 1% and the Z score is -0.18.
Turning to `Cc1cnc(OC2CCN(Cc3ccncc3Cl)CC2)nc1`, the “% Inhibition” value turned out to be 13% and the Z score is given as -1.77.
With `Cc1nc(-c2nc(CN3CCOC3=O)n(Cc3ccccc3C)n2)cs1`, the “% Inhibition” value is listed as -5% and the Z score stood at 1.09.
For `Cc1noc(C)c1CN1C(=O)[C@@H]2CC[C@H]1CN(c1ncccn1)C2`, the “% Inhibition” value is reported as -8% and the Z score worked out at 1.61.
On to `CCCc1ncc(C(=O)N[C@H]2CCCC[C@@H]2O)s1`, for which the “% Inhibition” value came to 1% and the Z score is recorded as -0.11.
As to `Cc1cccc(C(=O)NC[C@@]23CCCC=C2NC(=O)CC3)c1`, the “% Inhibition” value is given as -6% and the Z score was 0.91.
For the molecule `CCN(Cc1nccn1C)c1ccc(-c2nc(C(C)C)no2)cn1`, the “% Inhibition” value is on record as -3% and the Z score was 0.5.
`Cc1cc(C)c(C(=O)NCC#C[C@@H]2CCCCO2)c(C)n1`: the “% Inhibition” value is -23% and the Z score was 2.49.
`COC(=O)C[C@@H](C)CC(=O)Nc1nnc(C2CCCC2)[nH]1`: the “% Inhibition” value was -12% and the Z score is 2.56.
As for `CCc1ccc(-c2nn(CC)c(=O)c3c2CCCC3)cc1S(=O)(=O)N(CC)CC`, the “% Inhibition” value came out at 8% and the Z score was -1.58.
Taken in the same sequence, the figures for `O=C(NCc1ccccc1CN1CCCCC1)c1coc(Br)c1` were -5% and 0.89.
With `Cc1cccc(S(=O)(=O)N2CCc3nc(-c4ccc(Cl)cc4)ncc3C2)c1`, the “% Inhibition” value is recorded as -9% and the Z score is 1.45.
Regarding `CC1(C)CN(C(=O)c2ccnc(-n3cccn3)c2)[C@H]2COC[C@H]21`, the “% Inhibition” value was -9% and the Z score was 1.71.
Taken in the same sequence, the figures for `CCN1CC2(CCN(c3cccc([C@H](C)O)n3)CC2)CC1=O` were -13% and 1.64.
Taken in the same sequence, the figures for `CCC1CCC(CNC(=O)C2(N)CCC(O)C2)CC1` (configuration not stated) were 13% and -1.6.
Regarding `CN1CCO[C@@H]2CN(C(=O)NCc3noc(C4CC4)n3)C[C@@H]21`, the “% Inhibition” value was -6% and the Z score worked out at 0.85.

The values are drawn from ChEMBL document CHEMBL4888484, “Replenishing the malaria drug discovery pipeline: Screening and hit evaluation of the MMV Hit Generation Library 1 (HGL1) against asexual blood stage Plasmodium falciparum ,using a nano luciferase reporter read-out” (2022).
